This is one part of the list.
B1: chr22:36281740:36281783:-|3pUTR|ENSG00000100345|msi1_unk|total|mutant (ssRNA)
RNA: GGGAGUUCUACAGUCCGACGAUCUCUGACAGCCAGAGCGUCCGAGGGGCCAGCGGCCCUCCCAGGCGAUCUUGUGUCUACUCCCGGACUGGGCCCGAGGGUGGUUUACCUGCACCGUUGACUCAGUACCGUUUAAAAAUCUGCCAACAGAGGAUUGAGCAUCA
B2: chr1:227780961:227781062:+|3pUTR|ENSG00000143740|unk|FALSE|unique (ssRNA)
RNA: GGGAGUUCUACAGUCCGACGAUCCCUGGAAGAGGCCGCCCUCGUCUUGUCUCGGCUCCCUUUCAUGGACAGACUGGCCUUCUUAGCUGUACUAUAAAUUUGUGAGUGAAGUUAGAGCCCAGCUCACUUAGCCAGCUCACUUUGCAACAGAGGAUUGAGCAUCA
B3: chr7:6023389:6023508:+|CDS|ENSG00000106305|unk|FALSE|unique (ssRNA)
RNA: GGGAGUUCUACAGUCCGACGAUCGUUCUCUCUGUUUGGCCAGAAGCAUAAUGCUGUCAACGCAACCCUUAUAGAUAGCUGGGUAGAUAUUGCGAUUUUUCAGUUAAAAGAGGGAAGCAGUAAAGAAAAAGCCGCUGUUUUCCGCAACAGAGGAUUGAGCAUCA
B4: chr19:10683396:10683509:+|CDS|ENSG00000129351|unk|total|mutant (ssRNA)
RNA: GGGAGUUCUACAGUCCGACGAUCGUUCCAAGGUGCUGGUUCCAACAAAAAGGUGGCGAAGGCCUACGCUGCUCUUGCUGCCCCCGAAAAGCUUUUCCCUGACACCCCUCUCGCCCUUGAUGCCAACAAAAAGAAGAGAGCCCCCAACAGAGGAUUGAGCAUCA
B5: ENSG00000107863:be:win_1251|CDS|ENSG00000107863|bound_else_gene|NA|bound_elsewhere_windowed (ssRNA)
RNA: GGGAGUUCUACAGUCCGACGAUCAGCAUCUCAAAGCACGACAGAUUAUAACCAGGUCGUCCCCAACCGCACUACUUUGCAGGGACGACGUCGAAGCACCUCUCAUGAUCGAGUGCCCCAGUCUGUCCAGAUACGGCAACGCAGCAACAGAGGAUUGAGCAUCA
B6: chr17:67854386:67854487:+|CDS|ENSG00000171634|unk|FALSE|unique (ssRNA)
RNA: GGGAGUUCUACAGUCCGACGAUCAGAGGCAGAGGACUACCCAUAUGGACCAGUAGAGAACAAGAUCAAAGUUCUACAGUUUCUAGUCGAUCAGUUUCUUACAACAAAUAUUGCUCGAGAGGAAUUGAUGUCUGAAGGGGUGAUCAACAGAGGAUUGAGCAUCA
B7: chr13:24435276:24435388:-|CDS|ENSG00000102699|unk|total|mutant (ssRNA)
RNA: GGGAGUUCUACAGUCCGACGAUCCAAAAGAAAAAUGGAAUUAUCUCAGCCAGAAGUUUCUGAAGAUUUUGAAGAGGAUGGCUCCGGUGUACUACCAGCUUUCACAUCAAAUUUGGAACGUGGAGGUGUGGAAAAGCUAUUGGACAACAGAGGAUUGAGCAUCA
B8: chr3:48658964:48659065:-|CDS|ENSG00000008300|msi1|total|mutant (ssRNA)
RNA: GGGAGUUCUACAGUCCGACGAUCCGAUGUCUCCGACCACCUCUUCUACUCCUUUGAGCGUGGCAAUGAGCUGCAGCUGCUGGCCGUCAACCAGACCAGUGGGGAGCUGCGACUCAGCCGAAAGCCCGACAAUAACCGCCCACUCAACAGAGGAUUGAGCAUCA
B9: chr12:105021166:105021267:-|3pUTR|ENSG00000136010|unk|total|mutant (ssRNA)
RNA: GGGAGUUCUACAGUCCGACGAUCAGUCAGACAGUGUCACUUCACUCGUCUGUUUAAAACCUUUCAAUGGCCCCCAUUUCACGCCGACCAAAGUCCAACGUAUUUACCUGGCCUACUGAUCUUGCUCCCCGCUACCUCUGACCUCAACAGAGGAUUGAGCAUCA
B10: chr1:31434308:31434366:+|3pUTR|ENSG00000168528|msi1_unk|FALSE|overlapping (ssRNA)
RNA: GGGAGUUCUACAGUCCGACGAUCGCCAGGCUGAGCCCCCACCCCUGCCCCAGCUCCAGGACCUGCCCCUGAGCCGGGCCUUCUAGUCGUAGUGCCUUCAGGGUCCGAGGAGCAUCAGGCUCCUGCAGAGCCCCAUCCCCCCGCCAACAGAGGAUUGAGCAUCA
B11: ENSG00000070961:be:win_3601|CDS_3pUTR|ENSG00000070961|bound_else_gene|NA|bound_elsewhere_windowed (ssRNA)
RNA: GGGAGUUCUACAGUCCGACGAUCAACAAGUCUGCUACCUCUUCAUCCCCAGGAAGCCCACUACAUAGUUUGGAAACAUCACUCUGAUUGUAAGCUGAAUGUUAACACACUAGCUGCAUUGUAAAGAAACAAAUUGAAACUGGGCAACAGAGGAUUGAGCAUCA
B12: ENSG00000198589:be:win_1051|CDS|ENSG00000198589|bound_else_gene|NA|bound_elsewhere_windowed (ssRNA)
RNA: GGGAGUUCUACAGUCCGACGAUCGCAGAUGCUAAUAGAGUAUUCUGUGGUCAGAUGACUGCAGUUUACCUUUUCAGUGAAGCUCUAAAUGCAGCUCAGAUAUUUGCUAUUUAUCAGUUGGGCCUGGGAUACAAGGGUACAUUUCAACAGAGGAUUGAGCAUCA
B13: chr8:120459219:120459329:+|CDS|ENSG00000172167|unk|FALSE|unique (ssRNA)
RNA: GGGAGUUCUACAGUCCGACGAUCUUUGGAUUUGAAAUUAGUUUUCCUGAAUUUUGUUUAAAGGGAGUCACACUUAAGAAUUUUAGUACUUCUAAUUUAAAUACUGACUUCCUUGCCAAAAAGAUCAUACCAUCAAAGGAUAAGCAACAGAGGAUUGAGCAUCA
B14: chr5:154898482:154898583:-|CDS|ENSG00000082516|unk|FALSE|unique (ssRNA)
RNA: GGGAGUUCUACAGUCCGACGAUCUUUGGCCAAAAAGGGGGAUGCGGCAUCACUUAGAACGGCUGCAGAGUUGGCUGCCAUCGUAGGAGAGGAUGAGUUGUCUGCUUCCCUGGCUCUCAGAUGUGCCCAAGAGCUGCUUCUGGCCAACAGAGGAUUGAGCAUCA

molecular target: MSI1 full-length (mouse, UniProt Q61474 1-362); test: nsRBNS (natural sequence RNA bind-n-seq); RBNS binding buffer (assumed for nsRBNS): 25 mM Tris pH 7.5, 150 mM KCl, 3 mM MgCl2, 0.01% Triton X-100, 500 ug/ml BSA, 20 U/ml SUPERase-In, 4 C; UNK is unkempt and MSI1 is Musashi-1; names of the RNAs are library labels; protein concentration not given here; high values mean tight binding
UniProt Q61474, sequence (Q61474 whole entry): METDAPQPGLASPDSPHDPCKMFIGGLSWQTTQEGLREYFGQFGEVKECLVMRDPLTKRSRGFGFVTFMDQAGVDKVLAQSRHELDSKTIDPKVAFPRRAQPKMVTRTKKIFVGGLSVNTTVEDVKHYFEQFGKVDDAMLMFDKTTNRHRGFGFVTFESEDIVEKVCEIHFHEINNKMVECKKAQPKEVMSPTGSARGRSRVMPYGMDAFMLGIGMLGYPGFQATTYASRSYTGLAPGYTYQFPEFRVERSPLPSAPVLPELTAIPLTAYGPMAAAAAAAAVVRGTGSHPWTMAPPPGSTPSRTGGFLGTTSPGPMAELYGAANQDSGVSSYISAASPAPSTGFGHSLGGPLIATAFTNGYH

Binder | binding signal
B1 | 0.375 enrichment R
B2 | 0.793 enrichment R
B3 | 7.45 enrichment R
B4 | 0.675 enrichment R
B5 | 0.374 enrichment R
B6 | 0.706 enrichment R
B7 | 0.333 enrichment R
B8 | 0.463 enrichment R
B9 | 0.608 enrichment R
B10 | 1.98 enrichment R
B11 | 0.399 enrichment R
B12 | 6.62 enrichment R
B13 | 1.8 enrichment R
B14 | 0.698 enrichment R
